{
  "source": "PubChem BioAssay AID588855",
  "about": "(National Center for Advancing Translational Sciences (NCATS), 2011)",
  "note": "Among all 410,000 compounds or so, about 5,000 (1.2%) were called active. The inconclusive results got no clear call from the source; some entries with a clear call stand among them for comparison. The call rests on the fitted dose curve; in most records, active means well fitted inhibition curve with a large enough effect; inconclusive means small, poorly fitted or top-dose-only effect; inactive means no such curve, though single readings can be large or run the other way. A potency beside an inconclusive call is a rough fit, not a confirmed value. Potency means the concentration at half of the fitted maximal effect; tags describe the fitted curve by direction and shape.",
  "data": [
    {"experiment": "qHTS for Inhibitors of TGF-b; further: nearly all actives have a fitted effect of over 65% in size", "conditions": "HepG2 CAGA-GFP TGF-b/SMAD3 reporter, GFP fluorescence, 18 h, TGF-beta stimulated, 500 pg/mL final; series mostly up to 46.1 µM", "outline": "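HEPG2 CAGA-GFP reporter cells (1000/well, DMEM with 1% FBS) received compounds, then recombinant TGF-beta at 500 pg/mL final for 18 hours at 37 degrees C. Per-cell GFP summed per well was normalised to unstimulated and stimulated DMSO controls before curve fitting.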", "values": [
      {"smiles": "CCN1CCN(Cc2ccc(NC(=O)c3cc(NC(=O)c4ccc5n[nH]nc5c4)cc(OC)c3)cc2C(F)(F)F)CC1", "Potency": "inconclusive: 0.562 µM [inhibitor, full curve, poor fit]"},
      {"smiles": "CCCCS(=O)(=O)c1oc(-c2ccc(F)cc2)nc1S(=O)(=O)c1ccccc1", "Potency": "active: 2.82 µM"},
      {"smiles": "O=c1[nH]c(CSc2cccc[n+]2[O-])nc2ccccc12", "Potency": "inconclusive: 35.5 µM [inhibitor, single point]"},
      {"smiles": "COC(=O)[C@H](CC(C)C)N1Cc2cc(OC)cc(OC)c2-c2ccccc2S1(=O)=O", "Potency": "inconclusive: 12.6 µM [inhibitor, partial curve, poor fit]"},
      {"smiles": "Cc1cn(C2OC(COC(=O)c3ccccc3)C(OC(=O)c3ccccc3)C2OC(=O)c2ccccc2)c(=O)[nH]c1=O", "note": "(configuration not stated)", "Potency": "inactive"},
      {"smiles": "Fc1ccc(-c2cc(C(F)(F)F)nc(NCc3ccccc3)n2)cc1", "Potency": "inactive"},
      {"smiles": "COc1ccc(CCNC(=O)c2ccco2)cc1OC", "Potency": "inconclusive: 1 µM [inhibitor, full curve]"},
      {"smiles": "Cc1ccc(CNC(=O)c2ccc(N3CCC4(CC3)CC(c3ccccc3)=NO4)c([N+](=O)[O-])c2)cc1", "Potency": "inactive"},
      {"smiles": "CCOC(=O)c1c(NC(=O)C(C)Sc2cn(CCNC(=O)c3ccccc3OC)c3ccccc23)sc2c1CCC2", "note": "(configuration not stated)", "Potency": "inconclusive: 7.94 µM [inhibitor, partial curve]"},
      {"smiles": "N#CC(c1ccccc1)C(CC(=NO)c1ccccc1)c1ccccc1", "note": "(configuration not stated)", "Potency": "inconclusive: 35.5 µM [inhibitor, single point]"},
      {"smiles": "O=c1cc(-c2ccccc2)[nH]n1-c1ccc([N+](=O)[O-])cc1", "Potency": "inconclusive: 14.1 µM [inhibitor, partial curve, poor fit]"},
      {"smiles": "CCOC(=O)COc1ccc(CC)cc1C(=O)c1ccn2nc(-c3ccc(Cl)cc3)cc2n1", "Potency": "inconclusive: 0.708 µM [inhibitor, partial curve, poor fit]"},
      {"smiles": "COc1ccccc1-c1nnc2sc(COc3ccc(Cl)cc3Cl)nn12", "Potency": "inactive"},
      {"smiles": "COc1ccc(CNC(=S)N/N=C/c2ccncc2)cc1", "Potency": "inactive"},
      {"smiles": "O=C(N/N=C/C=C\\c1ccco1)c1ccccn1", "Potency": "inconclusive: 25.1 µM [inhibitor, single point]"},
      {"smiles": "CC(C)(C)c1ccc(C(=O)N2CCC(NC(=O)c3ccccc3)CC2)cc1", "Potency": "inactive"},
      {"smiles": "CCOc1ccc(C(c2c(C)[nH]n(-c3ccccc3)c2=O)c2c(C)[nH]n(-c3ccccc3)c2=O)cc1OC", "Potency": "inconclusive: 25.1 µM [inhibitor, single point]"},
      {"smiles": "O=C1c2ccccc2C(=O)N1CCCCCc1nc(-c2ccccc2)no1", "Potency": "inconclusive: 35.5 µM [inhibitor, partial curve, poor fit]"},
      {"smiles": "Fc1ccccc1SCc1nnc(-c2ccccc2Br)o1", "Potency": "inconclusive: 14.1 µM [inhibitor, single point]"},
      {"smiles": "CON(C)C(=O)CCN(Cc1ccccc1)C(=O)OC(C)(C)C", "Potency": "inconclusive: 35.5 µM [inhibitor, single point]"},
      {"smiles": "C[C@@]12CCC3[C@@](CCC4[C@@]3(C)CCC[C@@]4(C)C(=O)NCc3ccccc3)(CC1=O)C2", "note": "(some centres not stated)", "Potency": "inconclusive: 5.62 µM [inhibitor, partial curve, poor fit]"},
      {"smiles": "C=CCNc1nc(Cl)nc(Nc2cc(Cl)ccc2OC)n1", "Potency": "inactive"},
      {"smiles": "CCOC(=O)Cc1ccc(NC(=O)c2ccccc2Br)cc1", "Potency": "inactive"},
      {"smiles": "O=C(CSc1n[nH]c(-c2ccc(S(=O)(=O)N3CCCCC3)cc2)n1)Nc1nccs1", "Potency": "inconclusive: 14.1 µM [inhibitor, single point]"},
      {"smiles": "COc1ccc2c(c1)-c1nc(NC(=O)c3cccs3)sc1CC2", "Potency": "inconclusive: 22.4 µM [inhibitor, single point]"},
      {"smiles": "O=C(Nc1ccccc1)Nc1nnc(CSCc2ccccc2Cl)s1", "Potency": "active: 7.94 µM"},
      {"smiles": "CCc1cccc(CC)c1NC(=O)C1CN(S(=O)(=O)c2ccccc2)CCN1S(=O)(=O)c1ccccc1", "note": "(configuration not stated)", "Potency": "inconclusive: 0.112 µM [inhibitor, full curve, poor fit]"},
      {"smiles": "CCCNC(=O)OCc1cccnc1Sc1ccc(C)cc1", "Potency": "inactive"},
      {"smiles": "CCOc1cccc2cc(-c3nc(-c4ccc(Cl)cc4)c(C)s3)c(=O)oc12", "Potency": "inactive"},
      {"smiles": "c1coc(Cn2c(SCc3nc4ccccc4[nH]3)nnc2-c2cccs2)c1", "Potency": "inactive"},
      {"smiles": "CCN1CCN(c2oc(-c3ccccc3C)nc2S(=O)(=O)c2ccccc2)CC1", "Potency": "inactive"},
      {"smiles": "CN(C)CCCN(C(=O)c1sc2ccccc2c1Cl)c1nc2ccc(F)cc2s1", "Potency": "inactive"},
      {"smiles": "O=C(NCc1noc2ccccc12)N1CCN(c2ccccc2F)CC1", "Potency": "inactive"},
      {"smiles": "O=C(Nc1cccc(Cl)c1)Nc1nnc(CSCCOc2ccc(Cl)cc2)s1", "Potency": "inconclusive: 4.47 µM [inhibitor, full curve]"},
      {"smiles": "O=C(NC(=S)Nc1ccc(O)cc1)C1CCCC1", "Potency": "inconclusive: 35.5 µM [inhibitor, single point]"},
      {"smiles": "CC(=O)CSc1nnc(NC(=O)CCc2ccccc2)s1", "Potency": "inconclusive: 3.16 µM [inhibitor, single point]"},
      {"smiles": "Cc1nc2ccc(S(=O)(=O)N(CC(=O)Nc3cccc(C)c3C)Cc3ccccc3)cc2s1", "Potency": "inactive"},
      {"smiles": "Cc1ccc(OCCSc2nc3ccccc3n2CC(=O)N2CCCCC2)c(C)c1", "Potency": "inconclusive: 5.62 µM [inhibitor, single point]"},
      {"smiles": "NC(=S)N/N=C/c1ccc(-c2cc(Cl)cc(Cl)c2)o1", "Potency": "inconclusive: 28.2 µM [inhibitor, single point]"},
      {"smiles": "Cc1cc(C)c(C)c(S(=O)(=O)N2CCC(C(=O)NC3=NCCS3)CC2)c1C", "Potency": "inactive"},
      {"smiles": "COc1ccc(CCNC(=O)CN2C(=O)c3ccccc3S2(=O)=O)cc1OC", "Potency": "inconclusive: 3.98 µM [inhibitor, single point]"},
      {"smiles": "CC(=O)N1N=C(c2cccc(NS(C)(=O)=O)c2)CC1c1cccs1", "note": "(configuration not stated)", "Potency": "inconclusive: 7.94 µM [inhibitor, partial curve, poor fit]"},
      {"smiles": "O=C(NNC1=Nc2ccccc2SC1)c1cccc([N+](=O)[O-])c1", "Potency": "inconclusive: 31.6 µM [inhibitor, single point]"},
      {"smiles": "COC(=O)c1ccc2c(=O)n(CCCCCC(=O)O)c(=S)[nH]c2c1", "Potency": "inactive"},
      {"smiles": "COc1cccc(-c2nn(-c3ccccc3)cc2CN(C)C(C)c2ccon2)c1", "note": "(configuration not stated)", "Potency": "inactive"},
      {"smiles": "CC(C)NC(=O)N(C)C[C@H]1Oc2ccc(NC(=O)Nc3ccc(C(F)(F)F)cc3)cc2C(=O)N([C@H](C)CO)C[C@@H]1C", "Potency": "inconclusive: 0.447 µM [inhibitor, partial curve, poor fit]"},
      {"smiles": "CN(Cc1ccccc1)S(=O)(=O)c1ccc(F)c(C(=O)Nc2cc(Cl)cc(Cl)c2)c1", "Potency": "inconclusive: 11.2 µM [inhibitor, single point]"},
      {"smiles": "Cc1nn(CCc2nn[nH]n2)c2nc(-c3ccc(C4CCCCC4)cc3)cc(C(F)(F)F)c12", "Potency": "inconclusive: 8.91 µM [inhibitor, partial curve, poor fit]"},
      {"smiles": "COc1ccc(-c2csc(C(C)(O)c3ccc(F)c(F)c3)n2)cc1", "note": "(configuration not stated)", "Potency": "inconclusive: 11.2 µM [inhibitor, single point]"},
      {"smiles": "COc1ccc(OCc2n(CC(=O)OC3CC(C)CCC3C(C)C)c3ccccc3[n+]2C)cc1", "note": "(configuration not stated)", "Potency": "inconclusive: 35.5 µM [inhibitor, single point]"},
      {"smiles": "O=C(NCc1ccccc1)c1ccc(Cn2c(=O)c3cccn3c3cccnc32)cc1", "Potency": "inconclusive: 0.251 µM [inhibitor, full curve, poor fit]"},
      {"smiles": "CCN(CC)c1ccc(NC(=O)CN2C(=O)CSc3ncccc32)c(C)c1", "Potency": "inconclusive: 1.58 µM [inhibitor, partial curve, poor fit]"},
      {"smiles": "CC(=O)c1cccc(NC(=O)c2ccc3c(c2)c(C)c(C)n3Cc2ccc(Cl)cc2)c1", "Potency": "inconclusive: 2.51 µM [inhibitor, full curve]"},
      {"smiles": "O=c1cc(CSc2ccc(Cl)cc2)nc(-c2ccccn2)[nH]1", "Potency": "inconclusive: 1.12 µM [inhibitor, full curve, poor fit]"},
      {"smiles": "CCN(Cc1ccccc1)Cc1c(O)ccc2c(=O)c(-c3ccccc3Cl)coc12", "Potency": "inactive"},
      {"smiles": "N=c1c2c(-c3ccccc3)c(-c3ccccc3)n(Cc3ccco3)c2ncn1CCCN1CCOCC1", "Potency": "inconclusive: 11.2 µM [inhibitor, partial curve, poor fit]"},
      {"smiles": "C[C@H](CO)N1C[C@H](C)[C@@H](CN(C)Cc2ccc(C(=O)O)cc2)Oc2c(NS(=O)(=O)c3ccccc3)cccc2C1=O", "Potency": "inactive"},
      {"smiles": "Clc1ccccc1Nc1nc(-c2cccnc2)cs1", "Potency": "inactive"},
      {"smiles": "CCn1c(CCNC(=O)c2ccco2)nc2ccccc21", "Potency": "inconclusive: 3.55 µM [inhibitor, single point]"},
      {"smiles": "CCn1cc(C(=O)NCCCOC(C)C)c(=O)c2cc(S(=O)(=O)N(C)C3CCCCC3)ccc21", "Potency": "inconclusive: 25.1 µM [inhibitor, single point]"},
      {"smiles": "CCCCC(=O)Nc1ccc(NC(=O)CC)cc1OC", "Potency": "inconclusive: 1.41 µM [inhibitor, partial curve, poor fit]"},
      {"smiles": "O=C(c1cccs1)N(c1cccc(Cl)c1)C1C=CS(=O)(=O)C1", "note": "(configuration not stated)", "Potency": "inconclusive: 3.55 µM [inhibitor, single point]"},
      {"smiles": "O=C(NC1CCCC1)C(c1cccs1)N(CC1CCCO1)C(=O)Cc1cccs1", "note": "(configuration not stated)", "Potency": "inconclusive: 2.82 µM [inhibitor, single point]"},
      {"smiles": "CCN(C(=O)COC(=O)c1ccc(=O)n(Cc2ccccc2)n1)C1CCCCC1", "Potency": "inactive"},
      {"smiles": "CC(=O)OCC(=O)[C@@]12OC(C)(C)O[C@@H]1CC1C3C[C@H](F)C4=CC(=O)C=CC4(C)[C@@]3(F)C(O)CC12C", "note": "(some centres not stated)", "Potency": "inactive"},
      {"smiles": "Cc1ccsc1C(=O)OCC(=O)Nc1ccc(Cl)cn1", "Potency": "inactive"},
      {"smiles": "Cc1nc(SCC(=O)Nc2ccc(Cl)cc2C(F)(F)F)[nH]c(=O)c1Cc1ccccc1", "Potency": "inconclusive: 35.5 µM [inhibitor, partial curve, poor fit]"}
    ]}
  ]
}
